In the supplement of paper PMC7826260:
The list shows a part of the results. The data describe in vitro nicking of single-stranded DNA by Rep domains (3 µM enzyme, 1 h, 37 °C); shown is the middle of each 90-letter strand. A value is the log2 ratio of uncut reads to the pool without enzyme; uncut sequences lie near 0, cut ones below; no hit call is given. Because reads are shares of a total, they shift together, so uncut sequences can rise above 0 when many others are cut.

Key:
Experiment in all cases: uncleaved DNA left, log2 of reads against the no-enzyme library (log2 ratio); higher = less cleavage (more negative = more Rep cleavage of the k-mer); sequences stand for … in CTCGTCCG…ACCGGAGA
[1] = tested on: T1, Rep nickase domain of Muscovy duck circovirus
T1 sequence (protein, residues 1-111, tag omitted): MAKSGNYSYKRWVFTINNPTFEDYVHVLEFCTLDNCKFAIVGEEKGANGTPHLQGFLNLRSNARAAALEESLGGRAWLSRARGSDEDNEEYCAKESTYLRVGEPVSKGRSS
Protocol: (§1)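 A pool of 90-nt single-stranded DNAs with seven random bases just before the constant AC of the nick site (name = the seven bases) was cut by 3 µM recombinant His6-SUMO-tagged Rep nickase domain (300 nM DNA, 50 mM HEPES pH 8.0, 50 mM NaCl, 1 mM MnCl2, 1 h, 37 °C, three replicates). Uncut DNA was amplified and sequenced.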

[2] = tested on: T2, Rep nickase domain of banana bunchy top virus
T2 sequence (protein, residues 1-94, tag omitted): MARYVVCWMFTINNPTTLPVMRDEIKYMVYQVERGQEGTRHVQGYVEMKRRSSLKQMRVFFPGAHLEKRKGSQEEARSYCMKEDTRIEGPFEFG
Protocol: as §1

[3] = tested on: T3, Rep nickase domain of cabbage leaf curl virus
T3 sequence (protein, residues 1-116, tag omitted): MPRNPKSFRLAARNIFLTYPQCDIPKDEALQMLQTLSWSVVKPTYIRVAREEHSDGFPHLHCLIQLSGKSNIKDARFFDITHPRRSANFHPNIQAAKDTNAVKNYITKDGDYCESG
Protocol: as §1

[4] = tested on: T4, Rep nickase domain of chickpea chlorotic dwarf virus
T4 sequence (protein, residues 1-124, tag omitted): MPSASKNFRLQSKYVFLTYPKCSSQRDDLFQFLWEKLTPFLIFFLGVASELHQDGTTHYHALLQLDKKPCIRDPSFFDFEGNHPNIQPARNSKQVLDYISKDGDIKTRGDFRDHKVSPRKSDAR
Protocol: as §1

[5] = tested on: T5, Rep nickase domain of faba bean necrotic yellows virus
T5 sequence (protein, residues 1-98, tag omitted): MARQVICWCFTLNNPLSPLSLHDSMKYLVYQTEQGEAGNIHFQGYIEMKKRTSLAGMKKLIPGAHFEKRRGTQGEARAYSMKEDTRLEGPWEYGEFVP
Protocol: as §1

[6] = tested on: T6, Rep nickase domain of maize striate mosaic virus
T6 sequence (protein, residues 1-117, tag omitted): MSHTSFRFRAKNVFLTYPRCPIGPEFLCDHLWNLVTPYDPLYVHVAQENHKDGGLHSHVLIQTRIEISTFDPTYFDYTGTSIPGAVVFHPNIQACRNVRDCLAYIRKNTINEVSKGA
Protocol: as §1

[7] = tested on: T7, Rep nickase domain of porcine circovirus 2
T7 sequence (protein, residues 2-116, tag omitted): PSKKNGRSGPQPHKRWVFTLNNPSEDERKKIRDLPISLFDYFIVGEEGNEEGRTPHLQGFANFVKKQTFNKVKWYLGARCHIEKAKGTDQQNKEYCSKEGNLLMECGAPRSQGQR
Protocol: as §1

[8] = tested on: T8, Rep nickase domain of tomato golden mosaic virus
T8 sequence (protein, residues 1-124, tag omitted): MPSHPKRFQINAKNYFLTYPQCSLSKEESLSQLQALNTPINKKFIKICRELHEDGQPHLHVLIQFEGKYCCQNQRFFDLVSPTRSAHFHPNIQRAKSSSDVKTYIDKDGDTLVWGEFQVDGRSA
Protocol: as §1

[9] = tested on: T9, Rep nickase domain of tomato yellow leaf curl virus
T9 sequence (protein, residues 1-136, tag omitted): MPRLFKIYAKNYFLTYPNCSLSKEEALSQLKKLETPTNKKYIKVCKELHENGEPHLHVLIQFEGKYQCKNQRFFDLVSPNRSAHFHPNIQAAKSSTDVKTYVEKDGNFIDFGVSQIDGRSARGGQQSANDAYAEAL
Protocol: as §1

[10] = tested on: T10, Rep nickase domain of wheat dwarf virus
T10 sequence (protein, residues 1-137, tag omitted): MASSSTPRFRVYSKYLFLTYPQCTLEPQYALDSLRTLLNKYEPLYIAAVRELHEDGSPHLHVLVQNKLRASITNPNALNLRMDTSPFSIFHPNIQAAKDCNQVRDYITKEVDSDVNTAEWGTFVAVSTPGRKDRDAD
Protocol: as §1

Sequence | uncleaved DNA left (log2) [1] | uncleaved DNA left (log2) [2] | uncleaved DNA left (log2) [3] | uncleaved DNA left (log2) [4] | uncleaved DNA left (log2) [5] | uncleaved DNA left (log2) [6] | uncleaved DNA left (log2) [7] | uncleaved DNA left (log2) [8] | uncleaved DNA left (log2) [9] | uncleaved DNA left (log2) [10]
GTAACGT | 0.0131 | 0.134 | 0.192 | 0.673 | 0.0454 | 1.18 | 0.134 | 0.104 | 0.175 | 0.109
ATTCTTT | -1.25 | -1.01 | -0.192 | -2.7 | -0.0072 | -0.66 | -2.66 | -0.13 | -0.0379 | -0.0562
ACGTGAG | -0.0161 | -0.0343 | -0.679 | -0.155 | 0.0707 | -0.945 | 0.112 | 0.109 | 0.0713 | -0.13
CCTTGTA | -0.14 | 0.0455 | -0.191 | -1.15 | -0.0571 | -1.15 | -0.242 | -0.00615 | 0.0203 | -0.102
ACGCGTA | 0.0405 | -0.0178 | -0.578 | -1.01 | 0.0694 | -1.01 | 0.132 | 0.115 | 0.103 | 0.0104
ACCCCAA | -0.132 | -0.0754 | -0.144 | -0.288 | -0.0477 | -0.417 | -0.125 | 0.0459 | -0.098 | -0.00879
GCGCGCT | 0.165 | 0.014 | -0.272 | -0.325 | 0.0649 | -0.319 | 0.0736 | 0.0154 | -0.00965 | -0.227
AGTATAT | 0.146 | 0.108 | 0.298 | -0.0799 | 0.125 | 0.294 | -3.25 | 0.134 | 0.0522 | 0.0604
TTGCTCG | -0.177 | -0.158 | -1.07 | -0.285 | -0.0744 | -0.899 | -0.13 | -0.161 | -0.146 | -0.177
CCACGTA | 0.000936 | -0.0971 | -0.141 | -0.943 | 0.0314 | -0.681 | -0.0234 | 0.0173 | -0.104 | -0.1
CATGGCT | 0.124 | 0.0394 | -0.494 | -0.834 | 0.205 | -1.03 | 0.319 | 0.0327 | 0.144 | -0.0378
TGCTCGT | -0.106 | -0.159 | -0.189 | -0.67 | -0.0963 | -0.699 | -0.232 | -0.185 | -0.0863 | -0.122
CTCAAAA | 0.0258 | 0.0997 | 0.106 | -0.000845 | 0.127 | -0.622 | -0.0183 | 0.0125 | -0.00645 | 0.07
AGGGCAG | 0.00214 | 0.0683 | 0.377 | 1.31 | -0.0975 | 1.17 | 0.191 | 0.00647 | 0.0688 | 0.101
GATGGAC | -0.0195 | 0.0775 | 0.802 | 1.96 | 0.0609 | 2.07 | 0.266 | 0.0892 | 0.072 | 0.174
GTCTCTT | -0.36 | -0.0912 | 0.269 | 0.35 | -0.0556 | 1.6 | -1.33 | -0.175 | -0.0726 | -0.0258
GTCTTCA | 0.0222 | -0.0186 | 0.268 | 0.844 | 0.0158 | 1.72 | 0.0332 | 0.109 | -0.0529 | -0.00313
GAGATTA | -0.0174 | 0.0664 | 0.288 | 0.254 | -0.0911 | 1.34 | -0.585 | 0.0284 | -0.0419 | 0.0211
CCCTGAC | -0.0618 | -0.15 | -0.00712 | -0.361 | 0.129 | -0.441 | -0.0349 | -0.0453 | -0.0867 | -0.128
AAGACTG | 0.0497 | 0.00234 | -0.0685 | 0.725 | -0.0464 | 1.73 | 0.0568 | 0.0625 | -0.127 | 0.028
GCTGAAC | 0.0848 | 0.0981 | 0.131 | 0.626 | 0.0457 | 1.1 | 0.175 | 0.131 | 0.0546 | 0.152
GGAGCTC | 0.0764 | 0.209 | 0.625 | 1.38 | 0.155 | 1.89 | 0.121 | 0.0213 | 0.151 | 0.107
GTTGTTG | 0.0843 | -0.0941 | -0.0859 | -0.0247 | -0.023 | -0.488 | -0.0692 | -0.0328 | -0.00743 | -0.125
GACGTCT | -0.0135 | -0.0679 | 0.0688 | -1.6 | -0.0469 | 0.433 | -0.251 | -0.141 | -0.0782 | -0.0576
CGAAAAG | 0.0617 | 0.0487 | -0.678 | -0.278 | -0.0411 | -1.03 | 0.0956 | 0.0639 | 0.127 | -0.00564
AAATAAA | -0.0949 | 0.108 | -0.242 | -0.697 | 0.132 | -0.829 | -0.186 | 0.184 | -0.0476 | 0.00871
TCGAGGG | -0.0597 | -0.0778 | -0.0594 | 0.215 | 0.0123 | 0.172 | 0.104 | 0.0875 | -0.139 | -0.0109
ATACGAA | 0.0587 | -0.0115 | -0.0427 | -0.459 | 0.0935 | -0.687 | 0.167 | 0.0776 | -0.0165 | 0.0925
CCTAGTT | 0.127 | -0.0638 | 0.014 | -1.99 | -0.149 | -0.473 | -0.229 | -0.113 | 0.0735 | -0.0937
GTTTATC | -0.0415 | 0.0459 | 0.34 | 0.903 | -0.0777 | 1.57 | 0.0419 | 0.0199 | 0.0688 | 0.0826
